Laboratory results from patent US20240400644A1 (ACROIMMUNE GUANGZHOU BIOTECH, published 2024).

Assays:
[1] = biological target: T1, human Siglec-1 Fc fusion protein (human, UniProt Q9BZZ2 20-1641, limits assumed); assay: ELISA: Siglec-Fc coated at 0.2 µg/mL, biotin-labeled AI-071 titrated 2-fold, avidin-HRP
T1 construct: Recombinant IgG-Fc fusion, coated at 0.2 µg/mL; not shown: IgG-Fc
Method: (§1) Briefly, 2-fold dilutions of biotin-labeled AI-071 fusion protein were added into 96-well plated coated with indicated Siglec-Fc fusion proteins (all coating at 0.2 μg/mL), the amount of bound AI-071 protein was then detected by adding Avidin-HRP and OPD.
(§2) To evaluate the spectrum of Siglecs that binds to AI-071, recombinant IgG-Fc fusion protein containing one of the human siglec family members (Siglec-1, 2, 3, 4a, 5, 6, 7, 8, 9, 11, 14 and 15) were coated in 96-well plates and their binding to biotin-labeled AI-071 protein was detected in ELISA. The representative ELISA results are shown in FIG. 4B (Siglec-1, 2, 3, 4a, 5 and 6) and FIG. 4C (Siglec-7, 8, 9, 11, 14 and 15).

[2] = biological target: T2, human Siglec-5 Fc fusion protein (human, UniProt O15389 17-434, limits assumed); assay: as above
T2 construct: Recombinant IgG-Fc fusion, coated at 0.2 µg/mL; not shown: IgG-Fc
T2 sequence (looked up): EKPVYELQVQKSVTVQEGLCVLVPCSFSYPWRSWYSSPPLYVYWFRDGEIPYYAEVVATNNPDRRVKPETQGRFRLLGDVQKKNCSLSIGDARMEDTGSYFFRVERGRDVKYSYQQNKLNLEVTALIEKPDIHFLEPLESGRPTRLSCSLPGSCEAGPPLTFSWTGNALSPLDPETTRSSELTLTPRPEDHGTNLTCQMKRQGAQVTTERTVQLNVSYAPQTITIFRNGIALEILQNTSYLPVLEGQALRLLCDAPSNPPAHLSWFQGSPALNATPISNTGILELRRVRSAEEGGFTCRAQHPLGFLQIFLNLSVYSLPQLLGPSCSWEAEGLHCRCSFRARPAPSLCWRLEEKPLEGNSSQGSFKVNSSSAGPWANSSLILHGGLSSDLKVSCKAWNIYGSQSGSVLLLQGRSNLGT
Method: as §1, §2

[3] = biological target: T3, human Siglec-11 Fc fusion protein (human, UniProt Q96RL6 28-561, limits assumed); assay: as above
T3 construct: Recombinant IgG-Fc fusion, coated at 0.2 µg/mL; not shown: IgG-Fc
T3 sequence (looked up): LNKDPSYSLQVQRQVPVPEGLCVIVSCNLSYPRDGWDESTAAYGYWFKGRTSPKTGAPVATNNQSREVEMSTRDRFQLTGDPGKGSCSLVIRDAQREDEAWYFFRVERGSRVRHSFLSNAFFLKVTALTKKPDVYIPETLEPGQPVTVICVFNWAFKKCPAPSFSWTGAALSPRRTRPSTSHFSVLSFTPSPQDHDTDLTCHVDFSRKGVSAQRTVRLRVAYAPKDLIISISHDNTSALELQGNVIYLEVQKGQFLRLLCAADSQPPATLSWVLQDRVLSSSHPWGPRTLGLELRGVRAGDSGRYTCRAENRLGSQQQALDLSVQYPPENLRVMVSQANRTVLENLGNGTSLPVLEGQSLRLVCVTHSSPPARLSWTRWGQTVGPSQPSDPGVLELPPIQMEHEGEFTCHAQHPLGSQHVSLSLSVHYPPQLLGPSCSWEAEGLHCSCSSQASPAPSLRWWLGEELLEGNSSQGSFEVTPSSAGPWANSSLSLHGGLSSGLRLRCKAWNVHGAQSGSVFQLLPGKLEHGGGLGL
Method: as §1, §2

[4] = biological target: T4, biotinylated human Siglec10 (His- and Avi-tagged) (human, UniProt Q96LC7 17-546, limits assumed, biotinylated (Avi tag)); assay: BLI (Fortebio BLITZ), biotinylated Siglec10 on streptavidin sensors
T4 construct: Bought, HEK293 cell derived; immobilised on streptavidin biosensors; also called AcroBiosystems SIO-H82E3; not shown: His tag and Avi tag
T4 sequence (looked up): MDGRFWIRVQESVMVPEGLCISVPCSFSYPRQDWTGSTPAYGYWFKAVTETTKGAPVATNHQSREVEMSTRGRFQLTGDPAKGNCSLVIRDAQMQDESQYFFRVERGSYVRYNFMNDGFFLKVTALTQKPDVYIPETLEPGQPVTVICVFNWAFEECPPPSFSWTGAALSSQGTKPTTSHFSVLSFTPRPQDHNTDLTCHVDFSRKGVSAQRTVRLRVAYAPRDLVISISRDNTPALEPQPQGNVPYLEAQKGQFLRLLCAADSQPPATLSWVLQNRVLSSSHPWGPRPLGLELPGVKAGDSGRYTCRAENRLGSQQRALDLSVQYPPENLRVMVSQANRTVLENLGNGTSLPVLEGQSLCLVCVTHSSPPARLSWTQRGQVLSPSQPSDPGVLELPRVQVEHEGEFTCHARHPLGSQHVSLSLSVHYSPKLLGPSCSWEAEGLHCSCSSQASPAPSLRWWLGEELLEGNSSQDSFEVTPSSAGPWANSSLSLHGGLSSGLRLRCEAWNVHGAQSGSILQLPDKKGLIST
Method: A Fortebio based biolayer interferometry assay (BLI) was used to further analyze the binding kinetics of AI-07 fusion protein to human Siglec10. For this propose, streptavidin-coated biosensor tubes (Sartoris Octet SA biosensors, Cat. 18-0009) were incubated with biotinylated human Siglec10 (AcroBiosystems, HEK293 cell derived, His- and Avi-tagged, SIO-H82E3) at 2 μg/mL in binding buffer (1×PBS with 1 mM MgCl2, 3 mM CaCl2) at room temperature for 10 mins. After balanced with binding buffer, analytes of different concentrations of AI-071 or human IgG-Fc control protein were loaded into individual biosensor tube and the binding kinetic curves (association and dis-association) were recorded in Fortebio-BLITZ instrument.

T1 sequence (Q9BZZ2 20-1641 limits assumed): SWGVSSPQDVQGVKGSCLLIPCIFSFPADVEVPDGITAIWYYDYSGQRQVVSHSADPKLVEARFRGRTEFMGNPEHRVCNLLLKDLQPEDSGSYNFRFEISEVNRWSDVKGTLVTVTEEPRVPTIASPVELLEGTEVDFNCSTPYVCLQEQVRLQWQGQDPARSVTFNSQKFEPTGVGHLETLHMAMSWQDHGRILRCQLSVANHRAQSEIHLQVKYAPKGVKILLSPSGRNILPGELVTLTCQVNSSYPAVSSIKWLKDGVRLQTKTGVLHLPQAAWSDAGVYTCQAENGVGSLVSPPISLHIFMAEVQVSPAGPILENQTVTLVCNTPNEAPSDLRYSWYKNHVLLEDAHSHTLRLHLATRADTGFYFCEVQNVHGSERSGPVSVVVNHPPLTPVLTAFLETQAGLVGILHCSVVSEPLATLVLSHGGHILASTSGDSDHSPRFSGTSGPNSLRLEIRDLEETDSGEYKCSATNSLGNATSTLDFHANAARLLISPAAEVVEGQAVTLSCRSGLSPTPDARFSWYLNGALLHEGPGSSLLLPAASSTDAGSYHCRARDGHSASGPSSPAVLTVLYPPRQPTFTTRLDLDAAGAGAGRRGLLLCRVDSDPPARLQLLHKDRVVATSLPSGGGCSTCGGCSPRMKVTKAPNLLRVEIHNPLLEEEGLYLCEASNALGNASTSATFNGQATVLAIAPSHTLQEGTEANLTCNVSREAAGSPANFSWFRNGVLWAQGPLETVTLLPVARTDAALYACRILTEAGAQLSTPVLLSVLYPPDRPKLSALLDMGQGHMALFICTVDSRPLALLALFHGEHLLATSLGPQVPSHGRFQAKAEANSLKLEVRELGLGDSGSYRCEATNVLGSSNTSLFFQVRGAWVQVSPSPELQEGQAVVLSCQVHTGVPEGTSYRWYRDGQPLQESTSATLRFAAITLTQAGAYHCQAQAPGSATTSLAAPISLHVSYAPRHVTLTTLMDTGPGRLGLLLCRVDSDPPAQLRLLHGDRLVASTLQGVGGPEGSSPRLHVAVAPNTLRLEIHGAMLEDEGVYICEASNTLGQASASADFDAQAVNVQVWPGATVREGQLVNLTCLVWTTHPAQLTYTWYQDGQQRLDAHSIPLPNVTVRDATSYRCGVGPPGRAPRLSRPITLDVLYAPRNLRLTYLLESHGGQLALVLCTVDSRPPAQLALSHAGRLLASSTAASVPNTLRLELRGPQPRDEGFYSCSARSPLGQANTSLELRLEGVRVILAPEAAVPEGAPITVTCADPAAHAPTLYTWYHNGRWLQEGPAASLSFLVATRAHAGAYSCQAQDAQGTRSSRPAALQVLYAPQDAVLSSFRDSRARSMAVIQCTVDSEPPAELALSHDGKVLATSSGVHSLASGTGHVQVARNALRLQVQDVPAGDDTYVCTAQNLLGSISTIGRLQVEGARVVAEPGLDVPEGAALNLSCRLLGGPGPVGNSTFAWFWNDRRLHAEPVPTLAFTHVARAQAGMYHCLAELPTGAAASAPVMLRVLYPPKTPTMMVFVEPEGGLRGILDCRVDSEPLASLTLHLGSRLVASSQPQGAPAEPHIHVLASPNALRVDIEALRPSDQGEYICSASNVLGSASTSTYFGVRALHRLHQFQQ

B1: AI-071 fusion protein (Fc fusion)
chain: STSNSGLAPNPTSTSNSGLAPNPTSTSNSGLAPNPTSTSNSGLAPNPTSTSNSGLAPNPT[human IgG1 Fc skipped]
notes: Disulfide-linked homodimer; Used biotin-labeled in the Siglec panel ELISA; also called AI-071 Fc-fusion protein; AI-71
binding result [1]: binds | binding result [2]: binds | binding result [3]: binds | Kd [4]: 30 nM | koff [4]: 0.000125 s⁻¹ | kon [4]: 4160 M⁻¹ s⁻¹
